The list shows a part of the results.

The subject of the test is PfAP2-HC AP2 domain (GST-tagged). The test is described as follows: gcPBM binding intensity (ln(normalized median fluorescence intensity)); higher = stronger DNA binding. In a few lines: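 Alexa488 anti-GST antibody, scanned at 488 nm, detected GST-tagged P. falciparum DNA-binding domains that had been expressed in E. coli and incubated for 1 h on an Agilent 4 × 180k array. The array carried primer-extended double-stranded 36-bp intergenic genomic probes and negative controls. Binding intensity is the highest Masliner-normalised natural-log median intensity across replicate spots of either orientation of each probe.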
On to “ATTTTAAAAAATTAATGTACTTAATTAATACTGAAA [XGTACX_site7702]”, for which the “gcPBM binding intensity (ln)” value was 9.13. In the case of “ATTTGTTCATTTGGTTGTACATAATTTATTTTTATA [XGTACX_site785]”, the “gcPBM binding intensity (ln)” value stood at 9.79. In the case of “TTTTCATTTTTTTTTTTTTTTTTTTTTCTTTTTTTT [CACACA_negctrl_site1312]”, the “gcPBM binding intensity (ln)” value is 9.4. Turning to “ATTTCTTTAATATACACACACCAAAACAAAAAAAAA [CACACA_site6416]”, the “gcPBM binding intensity (ln)” value came to 10. Under “AAAAACAATCATTTTAAATAAAAATCTCTAATTTAA [GTGCAC_negctrl_site138]” stands 9.4; under “ATATAGTTCGATATAGTTAGTATGAATTGAAAAATA [CACACA_negctrl_site1826]”, 9.61; under “TTTTTAAAATATTTAACACACAATTTTAATGCATAA [CACACA_site6036]”, 9.61. The result for “AAAAAAATAAAACACACACACAAAAAAATAAAAATA [CACACA_site465]” reads 10.8; that for “GTTGTGTAATTCGTAACACACATAAAATATATATAA [CACACA_site6059]”, 9.82. Under “TTTTTTATTAAATATATATAATAATAATAATTTGTA [CACACA_negctrl_site1719]” stands 9.25.

As for “TATATTATATATTTATGTACGTATTTGTAAAAAGAT [XGTACX_site3444]”, the “gcPBM binding intensity (ln)” value was 9.56. With “TTTGTTTTATGTGGTTGTACACAAATACAATTTAAA [XGTACX_site5156]”, the “gcPBM binding intensity (ln)” value worked out at 9.47. Under ATAATAATTATATCAGTGCGCATATATATTTATTTA stands 9.71; under “TCATAGCACAAAAAATGTACTTATTATTTAATATTT [XGTACX_site5687]”, 9.55. In the case of “ATGTGATAATTTAATAGTACATAACAGTTTAACAAT [XGTACX_site5854]”, the “gcPBM binding intensity (ln)” value amounted to 10. Take “CAAACAAATTGTGAAACACACATATTTATATTTATA [CACACA_site7030]”: the “gcPBM binding intensity (ln)” value came to 9.6. Take “TTATAAAATAAACTTACACACATGAAATATTATAGT [CACACA_site7000]”: the “gcPBM binding intensity (ln)” value worked out at 9.75. The result for “TTTATATGCAATTAAGTGCATAAGAAAAAAAAAGGA [GTGCAC_site9966]” reads 9.64; that for “CACTTAAAAAAAATACGTACACATATATATATATAT [XGTACX_site2054]”, 9.77. For the sequence “TATCAGTATACAACAACACACATAATGTTTGTCATC [CACACA_site2980]”, the “gcPBM binding intensity (ln)” value turned out to be 9.92. Take “CAAAAATAAATATAAACACACAATAAATAAATAAAT [CACACA_site891]”: the “gcPBM binding intensity (ln)” value was determined as 10.

As for “ATTTAATAACGGCATGCATGTCCTTATATAAATTTA [TGCATGCA_site1012]”, the “gcPBM binding intensity (ln)” value worked out at 9.52. Regarding “TGAATTGTAATTTATAATATACGTGGTTTCTACTTA [CACACA_negctrl_site559]”, the “gcPBM binding intensity (ln)” value came out at 9.53. Turning to “CCTTACCAAATAATATGTACACATTTAATGTTATAT [XGTACX_site7840]”, the “gcPBM binding intensity (ln)” value stood at 9.7.

The values are drawn from the supplement of paper PMC11417369.
